Experimental data reported in patent EP4755398A1, “MULTIDRUG LINKER AND ANTIBODY-DRUG CONJUGATE” (priority 2023, dated 2025).

B1: RS7-A132 (conjugate, chains of the INN, looked up)
heavy: QVQLQQSGSELKKPGASVKVSCKASGYTFTNYGMNWVKQAPGQGLKWMGWINTYTGEPTYTDDFKGRFAFSLDTSVSTAYLQISSLKADDTAVYFCARGGFGSSYWYFDVWGQGSLVTVSSASTKGPSVFPLAPSSKSTSGGTAALGCLVKDYFPEPVTVSWNSGALTSGVHTFPAVLQSSGLYSLSSVVTVPSSSLGTQTYICNVNHKPSNTKVDKRV[letters of human IgG1 Fc omitted]
light: DIQLTQSPSSLSASVGDRVSITCKASQDVSIAVAWYQQKPGKAPKLLIYSASYRYTGVPDRFSGSGSGTDFTLTISSLQPEDFAVYYCQQHYITPLTFGAGTKVEIKRTVAAPSVFIFPPSDEQLKSGTASVVCLLNNFYPREAKVQWKVDNALQSGNSQESVTEQDSKDSTYSLSSTLTLSKADYEKHKVYACEVTHQGLSSPVTKSFNRGEC
modifications: A132 drug-linker payload
B2: RS7-A146 (conjugate, chains of the INN, looked up)
heavy: QVQLQQSGSELKKPGASVKVSCKASGYTFTNYGMNWVKQAPGQGLKWMGWINTYTGEPTYTDDFKGRFAFSLDTSVSTAYLQISSLKADDTAVYFCARGGFGSSYWYFDVWGQGSLVTVSSASTKGPSVFPLAPSSKSTSGGTAALGCLVKDYFPEPVTVSWNSGALTSGVHTFPAVLQSSGLYSLSSVVTVPSSSLGTQTYICNVNHKPSNTKVDKRV[letters of human IgG1 Fc omitted]
light: DIQLTQSPSSLSASVGDRVSITCKASQDVSIAVAWYQQKPGKAPKLLIYSASYRYTGVPDRFSGSGSGTDFTLTISSLQPEDFAVYYCQQHYITPLTFGAGTKVEIKRTVAAPSVFIFPPSDEQLKSGTASVVCLLNNFYPREAKVQWKVDNALQSGNSQESVTEQDSKDSTYSLSSTLTLSKADYEKHKVYACEVTHQGLSSPVTKSFNRGEC
modifications: A146 drug-linker payload
B3: RS7-A149 (conjugate, chains of the INN, looked up)
heavy: QVQLQQSGSELKKPGASVKVSCKASGYTFTNYGMNWVKQAPGQGLKWMGWINTYTGEPTYTDDFKGRFAFSLDTSVSTAYLQISSLKADDTAVYFCARGGFGSSYWYFDVWGQGSLVTVSSASTKGPSVFPLAPSSKSTSGGTAALGCLVKDYFPEPVTVSWNSGALTSGVHTFPAVLQSSGLYSLSSVVTVPSSSLGTQTYICNVNHKPSNTKVDKRV[letters of human IgG1 Fc omitted]
light: DIQLTQSPSSLSASVGDRVSITCKASQDVSIAVAWYQQKPGKAPKLLIYSASYRYTGVPDRFSGSGSGTDFTLTISSLQPEDFAVYYCQQHYITPLTFGAGTKVEIKRTVAAPSVFIFPPSDEQLKSGTASVVCLLNNFYPREAKVQWKVDNALQSGNSQESVTEQDSKDSTYSLSSTLTLSKADYEKHKVYACEVTHQGLSSPVTKSFNRGEC
modifications: A149 drug-linker payload

test system: BXPC-3 human pancreatic cancer cells; assay: In vivo anti-tumor activity, BXPC-3 xenograft (TROP2-targeting RS7 ADCs); parameters: species or system nude mice; details: 30 mg/kg intravenously, once a week, 2 administrations; Figure 43
Method: BXPC-3 human pancreatic cancer cells (ATCC), which express medium to high levels of TROP2, were suspended in PBS, and 5×10^6 cells were subcutaneously transplanted into the right flank of female nude mice. Random grouping was performed on day 5. On the grouping day, the antibody-drug conjugates RS7-[…], RS7-[…], and RS7-[…] were administered intravenously via the tail vein at a dose of 30 mg/kg each. A negative control group was set up, receiving an equivalent dose of PBS via tail vein injection. Administration was performed once a week, for a total of 2 administrations. After administration, tumor volume was measured twice a week using calipers, and body weight was recorded. Tumor volume was calculated according to the following formula: V= 1/2×a×b^2, where a and b represent length and width, respectively.

Molecule	anti-tumor activity (tumor volume over time)
B1	good anti-tumor activity
B2	good anti-tumor activity
B3	good anti-tumor activity
